# PubChem BioAssay AID445 (National Center for Advancing Translational Sciences (NCATS), 2006)
# The whole screen tested about 110,000 compounds, of which about 40 (0.04%) were called active. The shares of active, inactive and inconclusive entries below differ from those in the screen. Calls follow the shape of the dose curve; as a rule, active = well fitted curve in the direction sought with a large enough effect in the signal ratio (not every such curve was filed as active); inconclusive = small, poorly fitted or top-dose-only effect, or a change in a side signal; inactive = flat fitted curve, though single readings scatter; the % refers to the signal ratio. A potency beside an inconclusive call is a rough fit, not a confirmed value.
# Experiment: IkB Signaling;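 as to IkBa stabilization activation: 0% = basal untreated cells and 100% = reference inhibitor full response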
# Settings: ABC-DLBCL IkBa-CBG/CBR dual luciferase ratio (green luciferase fused to IkBa over red control in OCI-Ly3 lymphoma cells), 4 h, scaled: untreated 0%
# Procedure, shortened: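 Curves were fitted separately to fusion (green), unfused (red) and ratio luminescence, then classed by r2, magnitude and activity. Cells: OCI-Ly3, 4 h compound plus doxycycline at 37C; 10 uM MG-132 defined full response.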
# [1] = IkBa stabilization activation: at 57.1 µM (top of the series), proteasome inhibitor 100% unless noted
# Potency is read from the fitted curve at half-maximal effect.
smiles,measurement,setting,value
N#Cc1ccc(C(=O)Nc2ccc3c(c2)N(C2CCCC2)C(=O)c2ccccc2S3)cc1,IkBa stabilization activation,[1],inconclusive: -3.83% [signal inhibitor]
CCCCC[C@@H](O)[C@@H]1C(=O)O[C@@H](C)[C@@H](O)\C=C/C=C\C=C/C=C\C=C(\C)[C@H](O)C[C@H](O)C[C@H](O)C[C@H](O)C[C@H](O)C[C@H](O)C[C@@H]1O,IkBa stabilization activation,[1],"inactive: 0.862% [at 11.4 µM, scaled: untreated 0%, proteasome inhibitor 100%]"
CN1CCCN=C1/C=C\c1cccs1,IkBa stabilization activation,[1],inactive
COc1cccc(Nc2ncc3nc(-c4ccc(Cl)cc4)c(=O)n(C[C@H]4CCCO4)c3n2)c1,IkBa stabilization activation,[1],"inactive: 4.84% [at 11.4 µM, scaled: untreated 0%, proteasome inhibitor 100%]"
CCOC(=O)c1c(NC(=O)c2ccc(Br)o2)sc(C)c1CC,IkBa stabilization activation,[1],inconclusive: 4.09% [signal inhibitor]
Cc1nn(-c2ccc(N3CCCC3)nn2)c(C)c1CCC(=O)Nc1ccc(F)c(Cl)c1,IkBa stabilization activation,[1],inconclusive: 5.44% [signal inhibitor]
O=C(NCCc1nc2ccccc2n1Cc1ccc(Cl)cc1Cl)c1ccco1,IkBa stabilization activation,[1],inconclusive: 0.732% [signal inhibitor]
CC(C)Cn1c(=O)c2ccccc2n2c(CCC(=O)NC(C)c3ccccc3)nnc12 (stereo not given),IkBa stabilization activation,[1],inconclusive: 4.06% [signal inhibitor]
Cc1cccc(C(=O)NCCN2CCN(c3ccccc3)CC2)c1,IkBa stabilization activation,[1],inactive
Cc1cc(C)c2nc(N(Cc3cccnc3)C(=O)c3cccs3)sc2c1,IkBa stabilization activation,[1],inconclusive: -2.25% [signal inhibitor]
COc1cc(Cl)ccc1NC(=O)COc1ccccc1C(=O)N1CCN(c2ccc(O)cc2)CC1,IkBa stabilization activation,[1],inconclusive: 2.14% [signal inhibitor]
COc1cc(NS(=O)(=O)c2ccc(OC)c(C)c2C)c(OC)cc1Cl,IkBa stabilization activation,[1],inconclusive: 5.32% [signal inhibitor]
COc1cccc(C2=NOC(C(=O)Nc3cccc(C(C)=O)c3)C2)c1OC (stereo not given),IkBa stabilization activation,[1],inconclusive: -0.922% [signal inhibitor]
COc1ccc(OCc2nnc3n2N=C(c2ccc(C)cc2)CS3)cc1,IkBa stabilization activation,[1],inconclusive: 3.29% [signal inhibitor]
COc1cc(NC(=O)c2oc3c(c2C)-c2nn(Cc4cccc(Cl)c4)cc2CC3)cc(OC)c1,IkBa stabilization activation,[1],inactive
CCOc1ccc(N(C(C)C(=O)Nc2cc(Cl)ccc2OC)S(C)(=O)=O)cc1 (stereo not given),Potency,[1],"inconclusive: 25.1 µM [signal inhibitor, partial curve]"
O=C(Nc1ccc(OC(F)(F)F)cc1)C1CCN(S(=O)(=O)c2cccs2)CC1,IkBa stabilization activation,[1],inconclusive: 0.259% [signal inhibitor]
Fc1cccc(CSc2nc3ccncc3[nH]2)c1,IkBa stabilization activation,[1],inactive
CCOC(=O)C1CCN(C(=O)c2ccc3c(=O)n4nc(Nc5cc(C)ccc5C)sc4nc3c2)CC1,IkBa stabilization activation,[1],inconclusive: 0.0186% [signal inhibitor]
CCOc1cccc(C2c3c(-c4cc(C)ccc4O)n[nH]c3C(=O)N2Cc2ccco2)c1 (stereo not given),IkBa stabilization activation,[1],inconclusive: -1.16% [signal inhibitor]
Cc1ccc(CNC(=O)c2cc3c(=O)n(Cc4cccnc4)ccc3nc2C)cc1,IkBa stabilization activation,[1],inactive
Cc1cc(C(C)(C)CC(C)(C)C)ccc1OCCOCC[N+](C)(C)Cc1ccccc1,IkBa stabilization activation,[1],inactive
CC(C)(C)NC(=O)C(c1ccco1)N(C(=O)Cn1nnc(-c2ccc(F)cc2)n1)c1ccccc1F (stereo not given),IkBa stabilization activation,[1],inconclusive: 6.64% [signal inhibitor]
Cc1nc(NCCN2CCOCC2)c2oc3ccccc3c2n1,IkBa stabilization activation,[1],inactive
Cc1ccc(C)c2nc(N3CCCC3)c(C#N)cc12,IkBa stabilization activation,[1],inactive
Cc1cc(NC(=O)c2c(F)c(F)c(F)c(F)c2F)no1,IkBa stabilization activation,[1],inconclusive: 5.25% [signal inhibitor]
Cc1ccc(NC(=O)Cn2c(=O)oc3cc(S(=O)(=O)NCc4ccccc4)ccc32)cc1,IkBa stabilization activation,[1],inconclusive: 0.0402% [signal inhibitor]
Cc1cccc(N2CCN(c3cccc(C)c3)C2c2cccnc2)c1,IkBa stabilization activation,[1],inconclusive: -3.37% [signal inhibitor]
Cc1ccc2nc(N(Cc3cccnc3)C(=O)CCS(=O)(=O)c3ccccc3)sc2c1,IkBa stabilization activation,[1],inconclusive: 6.49% [signal inhibitor]
CC(=O)c1ccc(NC(=O)CSc2nc(-c3cccc(F)c3)nc3c2c(=O)n(C)c(=O)n3C)cc1,IkBa stabilization activation,[1],inactive
Cc1cc2nc(-c3ccc(NC(=O)C(C)C)cc3)oc2cc1C,IkBa stabilization activation,[1],inactive
Cc1ccc(CN(Cc2ccco2)C(=O)COc2ccc(C(C)C)cc2)cc1,IkBa stabilization activation,[1],inconclusive: -0.716% [signal inhibitor]
COc1cc(-c2noc(-c3ccco3)n2)cc(OC)c1OC,IkBa stabilization activation,[1],inactive
COCCn1c(=O)c(-c2cc(F)cc(F)c2)nc2cnc(Nc3cccc(OC)c3)nc21,IkBa stabilization activation,[1],"inactive: -0.391% [at 11.4 µM, scaled: untreated 0%, proteasome inhibitor 100%]"
CCN(CC)c1ccc(NC(=O)c2ccc(Br)o2)c(C)c1,IkBa stabilization activation,[1],inactive
CCOC(=O)c1cc(C)n(CC2CCC(C(=O)Nc3ccc(C)c(F)c3)CC2)c1C (stereo not given),IkBa stabilization activation,[1],inconclusive: -1.83% [signal inhibitor]
Cc1csc(NC(=O)CSc2nc(C(C)C)nc3c2c(=O)n(C)c(=O)n3C)n1,IkBa stabilization activation,[1],inconclusive: 3.67% [signal inhibitor]
COc1ccc(-n2c(C)cc(C(=O)CSc3nnc(-c4ccoc4C)n3C)c2C)cc1,IkBa stabilization activation,[1],inconclusive: 3.4% [signal inhibitor]
Nc1nnc(-c2cccnc2)s1,IkBa stabilization activation,[1],inactive
CN(C)CCCN1c2ccccc2CCc2ccc(Cl)cc21,IkBa stabilization activation,[1],inconclusive: 0.0503% [signal inhibitor]
same,IkBa stabilization activation,"at 25.6 µM (top of the series), proteasome inhibitor 100%",inactive: 3.19%
same,IkBa stabilization activation,"at 57.1 µM (top of the series), proteasome inhibitor 100%",inactive: 2.65%
c1ccc2cc3[nH]c(CN4CCCCC4)nc3cc2c1,IkBa stabilization activation,[1],inconclusive: 11.9% [signal inhibitor]
CN(C)c1ncc2nc(-c3cc(F)cc(F)c3)c(=O)n(Cc3ccc(F)cc3)c2n1,IkBa stabilization activation,[1],"inactive: 1.78% [at 11.4 µM, scaled: untreated 0%, proteasome inhibitor 100%]"
Cn1c(C(=O)Nc2ccc3c(c2)OCO3)cc2c(=O)n(C)c3ccccc3c21,IkBa stabilization activation,[1],inactive
C=CCn1c(SCc2cc(=O)n3ccsc3n2)nc2scc(C3CC3)c2c1=O,IkBa stabilization activation,[1],inconclusive: 8.17% [signal inhibitor]
COc1ccc(N2CC(NC(=O)CCCc3ccccc3)CC2=O)cc1 (stereo not given),IkBa stabilization activation,[1],inactive
CCOc1cc(CNC(=O)NC2COc3ccc(OC)cc3C2)cc(OCC)c1OCC (stereo not given),IkBa stabilization activation,[1],inconclusive: 1.59% [signal inhibitor]
COC(=O)c1ccccc1NC(=O)Nc1nnc(N2CCC(C)CC2)s1,IkBa stabilization activation,[1],inconclusive: -0.808% [signal inhibitor]
Cc1csc2nc(COc3ccccc3NC(=O)c3ccc(C(C)(C)C)cc3)cc(=O)n12,IkBa stabilization activation,[1],inconclusive: 4.73% [signal inhibitor]
CC(=O)C1=C(c2ccc(C)c(C)c2)N(C(C)=O)n2c(nnc2-c2ccc(Cl)cc2)S1,IkBa stabilization activation,[1],inconclusive: 0.855% [signal inhibitor]
O=C(Cn1c(=O)n(-c2ccccc2Cl)c(=O)c2sc3ccccc3c21)NC1CCCCC1,IkBa stabilization activation,[1],inconclusive: 2.72% [signal inhibitor]
Cc1ccccc1-n1nc(CO)c(C(=O)NCc2cccs2)n1,IkBa stabilization activation,[1],inactive
CCn1c(SCC(=O)Nc2oc(-c3ccccc3)c(-c3ccccc3)c2C#N)nnc1-c1ccco1,IkBa stabilization activation,[1],inconclusive: 3.7% [signal inhibitor]
CCOC(=O)c1c(C)[nH]c(C(=O)CN2CCOCC2)c1C,IkBa stabilization activation,[1],inactive
Cc1ccccc1OC(=O)CSc1nnc(-c2ccc(F)cc2)o1,IkBa stabilization activation,[1],inconclusive: 3.62% [signal inhibitor]
Cc1ccc(-c2cc(C(=O)Oc3ccccc3)c3cc(C)ccc3n2)cc1,IkBa stabilization activation,[1],inconclusive: 3.98% [signal inhibitor]
CCC(=O)O[C@H](CC(=O)O)C[N+](C)(C)C,IkBa stabilization activation,[1],inactive
Fc1ccc(CSc2nnc(-c3cnccn3)n2Cc2ccco2)cc1,IkBa stabilization activation,[1],inconclusive: 3.13% [signal inhibitor]
Cc1ccc(Cn2nnc3c(=O)[nH]c(C4CCN(S(=O)(=O)c5cc(C)ccc5C)CC4)nc32)cc1,IkBa stabilization activation,[1],inconclusive: 8.84% [signal inhibitor]
COc1ccc2nc(NC(=O)c3nc(S(=O)(=O)Cc4cccc(C)c4)ncc3Cl)sc2c1,IkBa stabilization activation,[1],inconclusive: -2.03% [signal inhibitor]
Cc1cc(NC(=O)C2CCN(S(=O)(=O)c3ccc4[nH]c(=O)oc4c3)CC2)ccc1Br,IkBa stabilization activation,[1],inactive
O=C1[C@@H]2C(Cc3ccc(O)cc3)NC3(C(=O)Nc4ccc(F)cc43)[C@@H]2C(=O)N1c1ccc(F)cc1 (stereo not given in full),Potency,[1],"inconclusive: 15.8 µM [signal inhibitor, partial curve]"
COC(=O)/C=c1/sc2n(c1=O)CCN=2,IkBa stabilization activation,[1],inactive
CCOC(=O)Cn1nc(C)c(NC(=O)COc2ccc(Cl)cc2C)c1C,IkBa stabilization activation,[1],inconclusive: 1.4% [signal inhibitor]
Cc1cccc2nc(-c3cccc(NS(=O)(=O)c4ccccc4)c3)cn12,IkBa stabilization activation,[1],inconclusive: 9.22% [signal inhibitor]
Cc1ccc(C)c(CSc2nc3ccncc3n2CC(=O)Nc2ccc(N(C)C)cc2)c1,IkBa stabilization activation,[1],inconclusive: 1.04% [signal inhibitor]
COC(=O)C1=C(CN2CCc3ccccc32)NC(=O)NC1c1cc(C)ccc1C (stereo not given),IkBa stabilization activation,[1],inconclusive: 3.44% [signal inhibitor]
Cc1ccc(C)c(Cn2c3ccccc3c3cnn(CC(=O)NCc4ccccc4)c(=O)c32)c1,IkBa stabilization activation,[1],inconclusive: 0.724% [signal inhibitor]
Cc1ccc(NC(=O)CSc2nc(-c3ccco3)nc3cc(=O)[nH]n23)cc1C,IkBa stabilization activation,[1],inconclusive: 4.19% [signal inhibitor]
